Test results taken from PubChem BioAssay AID1347073 (National Center for Advancing Translational Sciences (NCATS), 2019).
Hit rate of the full screen: of about 45,000 compounds, about 200 (0.44%) were called active. Not shown: some 7% with an inconclusive outcome. Calls come from the whole dose curve; as a rule, active = well fitted activation curve with a large enough effect; inconclusive = small, poorly fitted or top-dose-only effect; inactive = no such curve, though single readings can be large or run the other way. The list shows a part of the results.

Assay: qHTS of TDP-43 Inhibitors: NCGC Sytravon Library Screen; note: 0% is about no effect; nearly all actives have a fitted effect of over 55% in size
Settings: yeast TDP-43 toxicity rescue, BacTiter-Glo growth, 24 h; series mostly up to 46.1 µM; growth rescue (activation): at the top concentration
How it was run: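 TDP-43-expressing yeast, pregrown in raffinose, seeded at OD600 0.02 in galactose medium with compound for 24 hr at 30 deg C. Growth read by BacTiter-Glo luminescence, so rescue of toxicity appears as activation.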

SMILES | growth rescue (activation)
CNc1ccccc1C(C)(C)c1cc(-c2cccc(OC)c2)no1 | inactive: 5.58%
CC(C)OCCCNC(=O)C1CCN(S(=O)(=O)N2CCCC2)CC1 | inactive: -0.767%
CC1CCN(C(=O)C2CCN(S(=O)(=O)c3ccc(-n4cnnn4)cc3)CC2)CC1 | inactive: 11.8%
O=C(Nc1ccc(F)cc1)c1ccc2snnc2c1 | inactive: 13.5%
COc1cccc(C(CNC(=O)c2ccc(Cl)c(S(=O)(=O)N3CCCC3)c2)N(C)C)c1 (stereo not given) | inactive: 36.4%
CC1CCCCC1NC(=O)CSc1nnc(CC(=O)Nc2ccccc2F)n1C (stereo not given) | inactive: 4.43%
CC(=O)N/N=C/c1cc(C(C)C)cc(/C=N/NC(C)=O)c1O | inactive: -23.9%
CC(=O)NCC(=O)N(C)C(C(=O)Nc1ccc2c(c1)OCCO2)c1ccccc1 (stereo not given) | inactive: 36.4%
COc1ccccc1NC(=O)C(=O)N/N=C/c1cccs1 | inactive: -1.66%
Cc1cc(C(=O)N/N=C/c2cc(Br)cc(Br)c2OC(=O)c2cccc(F)c2)n[nH]1 | inactive: 10.4%
CCCCc1ccc(NC(=O)COc2ccc(C(=O)Nc3ccccc3OCC)cc2)cc1 | inactive: 11.3%
O=C(NCCN1CCN(c2ccccc2)CC1)c1ccccc1F | inactive: 3.35%
Cc1cc(C)cc(NC(=O)CNC(c2ccccc2)c2ccccc2)c1 | inactive: -18.7%
Cc1ccc(C(=O)c2ccc(C)cc2)cc1 | inactive: -8.64%
COCCSc1ccccc1C(=O)Nc1ccccc1C#N | inactive: 0.584%
CC(C)N1CCc2c(sc(NC(=S)NC(=O)c3ccccc3)c2C#N)C1 | inactive: -16.7%
Cc1cccc(NC(=O)CSc2nc3sc(C)cc3c(=O)n2C)c1 | inactive: -2.82%
Cc1ccc(-c2nn(-c3ccccn3)c(=O)c3ccccc23)cc1 | inactive: -24.9%
O=C(NC1CC1)C1CCN(C2CCN(C(=O)CC3=CCCCC3)CC2)CC1 | inactive: -5.11%
COc1ccc(OC)c(/C=C2\SC(=S)N(NS(=O)(=O)c3ccc(C)cc3)C2=O)c1 | inactive: -10.9%
Cc1ccc(C(CC(=O)c2ccc(Cl)cc2)C(=O)O)cc1 (stereo not given) | inactive: 4.44%
CCN(CC(=O)NCc1ccncc1)S(=O)(=O)c1cc(Cl)ccc1Cl | inactive: 4.92%

SMILES | growth rescue (activation)
Nc1nnc(-c2cccc(F)c2)s1 | inactive: -4.41%
O=C(Nc1cccc(Cl)c1)Nc1nnc(CSCCOc2ccc(Cl)cc2)s1 | inactive: 10.6%
COc1cccc(OCc2nc3ccccc3n2C)c1 | inactive: 27.3%
CC(=O)c1cccc(NC(=O)COC(=O)CCC(=O)c2ccc(F)cc2)c1 | inactive: 10.4%
Oc1ccc2ccccc2c1C=Nc1ccccc1 | inactive: -31.1%
COc1ccccc1N1CCN(C(=O)CCCCCn2c(=O)[nH]c3ccsc3c2=O)CC1 | inactive: 15.4%
N#C/C(=C\c1ccc(F)cc1)C(=O)Nc1ccccn1 | inactive: -30.5%
C=CC[C@H]1CC(C)=C[C@H](CC=C)N1 | inactive: 12.5%
O=C(Nc1ccccc1)Nc1nnc(CSCc2ccccc2Cl)s1 | inactive: 4.67%
CCc1cccc(CC)c1NC(=O)C1CN(S(=O)(=O)c2ccccc2)CCN1S(=O)(=O)c1ccccc1 (stereo not given) | inactive: 18%
CCCn1c(N)c(N(CCOC)C(=O)c2ccccc2)c(=O)[nH]c1=O | inactive: -1.35%
Cc1cc(C)nc(N2CCCC(C(=O)NNC(=O)c3ccncc3)C2)n1 (stereo not given) | inactive: 3.28%
O=C1c2ccccc2C(=O)N1CCCCCc1nc(-c2ccccc2)no1 | inactive: 11.9%
CCn1cc(C(=O)NCc2ccco2)c(=O)c2cc(S(=O)(=O)N3CCCC3)ccc21 | inactive: 13.5%
O=C(c1cc(-c2ccccc2O)on1)N1CCOCC1 | inactive: -4.62%
CCOc1ccc(-c2cc(C(=O)NCc3ccc(C(F)(F)F)cc3)[nH]n2)c(C)c1 | inactive: 18.1%
COc1ccccc1CN(C)C(=O)CNC(=O)c1cccc(Cl)c1 | inactive: 15%
Cc1ccc(CN2CCN(/N=C/c3ccc(C(F)(F)F)cc3)CC2)cc1 | inactive: 6.38%
COc1ccc(CCNC(=O)CC2SC(N)=NC2=O)cc1OC (stereo not given) | inactive: 13.6%
Cc1ccc(C)c(OCCC(=O)OCC(=O)NC(=O)NC2CCCCC2)c1 | inactive: 3.18%
O=C(NCC1(c2ccccc2)CCCC1)c1ccc(Br)cc1 | inactive: 6.48%
CCOc1ccc(S(=O)(=O)N2CCC(C(=O)NCC3CCCO3)CC2)cc1Cl (stereo not given) | inactive: -0.292%

SMILES | growth rescue (activation)
CCc1sc(C(=O)Nc2ncccc2C)cc1C | inactive: 18.9%
N=C(c1ccc([N+](=O)[O-])cc1)N1CCCCCC1 | inactive: 10.1%
Cc1ccc(C)c(NC(=O)c2ccc[n+](Cc3ccc([N+](=O)[O-])cc3)c2)c1 | inactive: -0.0209%
OCCC1CN(Cc2cccn2-c2cccnc2)CCN1C1CCCCC1 (stereo not given) | inactive: 8.5%
N#Cc1c(N2CCOCC2)nc(N)c2c(N)nc3c(c12)CC(CCl)O3 (stereo not given) | inactive: -74.7%
NC(=O)C1CCN(C(=O)CN(c2ccc3c(c2)OCCO3)S(=O)(=O)c2ccccc2)CC1 | inactive: -18.3%
Cc1nc2c(OCc3cccc(Cl)c3)cccn2c1N(C)CC1CC1 | inactive: 7.14%
COc1ccc(OC)c(NC(=O)COC(=O)COc2ccc(Nc3ccccc3)cc2)c1 | inactive: 9.51%
CCCS(=O)(=O)NC(=O)C1(C)CCN(C(=O)COc2ccc(Cl)cc2Cl)C1 (stereo not given) | inactive: -11.7%
Cc1nnc(-c2ccc(Oc3ccc(Cl)cc3)c([N+](=O)[O-])c2)o1 | inactive: 19.2%
CCN(CC)C(=O)Oc1ccc2c(c1)O/C(=C\c1ccco1)C2=O | inactive: 3.27%
O=C(CNC(=O)c1ccc(F)cc1)NCc1ccc(S(=O)(=O)N2CCOCC2)cc1 | inactive: 20.8%
Cc1ccc(S(=O)(=O)N2CC(C)C(=O)CC2C)cc1 (stereo not given) | inactive: 3.12%
CNC(=O)NC(=O)COC(=O)CCc1nc(=O)c2ccccc2n1C | inactive: -6.17%
CC1CCCCC1NC(=O)CN1CCN(Cc2ccccc2Cl)C1=O (stereo not given) | inactive: -1.76%
Cc1c(C(=O)N(Cc2ccc(N(C)C)cc2)Cc2ccco2)oc2cc(Br)ccc12 | inactive: 5.26%
C=CCC1(NC(C)c2ccccc2)CCCCC1 (stereo not given) | inactive: -30.4%
CN(CC(=O)O)S(=O)(=O)/C=C/c1ccccc1 | inactive: -23.4%
Cc1ccc(OCC(=O)Nc2ccc3oc(=O)ccc3c2)cc1C | inactive: 6.27%
COc1cc(/C=N/NC(=O)Cc2nnc(NC(=O)c3ccccc3)s2)ccc1O | inactive: 6.38%
Cc1ccc(OCC(=O)NS(=O)(=O)c2ccccc2)cc1 | inactive: 27.9%
CCOC(=O)C1=NNC2(c3ccc(C)cc3)C(=O)N(c3ccc(Cl)cc3)C(=O)C12 (stereo not given) | inactive: 16.3%

SMILES | growth rescue (activation)
CN(C)C(=S)Nn1c(-c2ccccc2)nc2ccccc2c1=O | inactive: -14.7%
CN1CCN(C(=O)CCCN2C(=O)/C(=C/c3cccc(Br)c3)SC2=S)CC1 | inactive: -26.2%
CN(C)S(=O)(=O)c1cccc(NC(=S)NC2CCCCC2)c1 | inactive: 3.95%
COC(=O)c1ccc(CSc2nnc(NC(C)C)s2)o1 | inactive: -7.74%
O=C(N/N=C1\CC(c2ccccc2)Oc2ccccc21)c1ccc(O)cc1 (stereo not given) | inactive: 11.3%
COC(=O)NC(C)N1C(=O)C2C3C=CC(C3)C2C1=O (stereo not given) | inactive: 7.85%
CCOc1ccc(-c2nnc(NC(=O)C3CCCC3)o2)cc1 | inactive: 35.2%
CCC1C(=O)NCCN1Cc1nc(-c2ccc(C)s2)oc1C (stereo not given) | inactive: -5.18%
C=CCN1C(=O)/C(=C/c2ccc(OC(C)=O)c(OCC)c2[N+](=O)[O-])SC1=S | inactive: -2.45%
CN(C)C(=O)CNC(=O)CN1C(=O)NC2(CCCc3sccc32)C1=O (stereo not given) | inactive: 22.4%
CCc1nc2nc(C)c(NS(=O)(=O)c3ccc(CC(C)C)cc3)c(=O)n2[nH]1 | inactive: -16.3%
COCCn1c(SCc2ccc(OC)c(F)c2)nnc1-c1ccncc1 | inactive: -3.96%
CN(CC(=O)Nc1ccccc1Cl)C(=O)CSc1ncc(C(F)(F)F)cc1Cl | inactive: 29.3%
COc1ccc(CN2C(=O)NC3(CCCC3)C2=O)cc1F | inactive: -4.86%
COc1ccccc1N(C)S(=O)(=O)c1ccc(Cl)c(C(=O)NCc2ccco2)c1 | inactive: -7.8%
COc1ccc(NC(=O)CN2CCCCC2)cc1S(=O)(=O)N1CCCCC1 | inactive: 5.49%
Cc1cc2c(c(N3CCOCC3)n1)C(=O)OC2 | inactive: 3.2%
Cc1ccc(C2(C)NC(=O)N(CC(=O)NC(C)c3ccccc3)C2=O)cc1 (stereo not given) | inactive: -23.6%
CN1C(=O)N(C)C(c2cccc([N+](=O)[O-])c2)C2=C1CCCC2=O (stereo not given) | inactive: 6.67%
Fc1ccccc1-c1nc2ccccc2[nH]1 | inactive: 3.8%
CC(C)(C)c1ccc(C2=NC(C)(C)N(CC(=O)Nc3ccc(F)c(F)c3)C2=O)cc1 | inactive: 9.78%
COc1ccc(N(CC(=O)Nc2ccccc2F)S(=O)(=O)c2ccc(C)c([N+](=O)[O-])c2)cc1 | inactive: 13.2%

SMILES | growth rescue (activation)
C=CCn1c(COc2ccccc2)nc2ccccc21 | inactive: 23.2%
CCOC(=O)N/N=C(C)/C=C/c1ccco1 | inactive: 7.09%
COc1cccc(NC(=O)Cc2c(O)c3ccccc3[nH]c2=O)c1 | inactive: -3.38%
CCOc1ccc(Nc2nc(NCC(=O)O)nc(N)c2[N+](=O)[O-])cc1 | inactive: 7.13%
O=C(COc1ncnc2ccccc12)Nc1ccc(Cl)c(S(=O)(=O)N2CCOCC2)c1 | inactive: 11.9%
Cc1ccc(C)c(CN2CCC(n3nccc3NC(=O)C3CCCC3)CC2)c1 | inactive: 16.3%
CC(C)C(=O)NC(NCC1CCCO1)C(Cl)(Cl)Cl (stereo not given) | inactive: -6.4%
COc1cc(C(=S)N2CCN(c3cccc(Cl)c3)CC2)ccc1O | inactive: 6.27%
COC(=O)c1ccccc1NC(=O)C1(S(=O)(=O)c2ccc(Cl)cc2)CC1 | inactive: -1.95%
NC(=O)CSc1nc2scc(-c3ccc(Cl)cc3)c2c(=O)n1Cc1ccccc1 | inactive: 4.34%
CCc1ccc(-c2cn3c(n2)SCC3)cc1 | inactive: 6.06%
S=c1[nH]nc(C2CC2)n1Cc1ccccc1 | inactive: -1.1%
O=C(Cc1cn2ccsc2n1)Nc1nc2c(s1)CCCC2 | inactive: 28.8%
OC[C@@H]1CN(Cc2ccccc2)C[C@H](n2ccc3c(N4CCCC4)ncnc32)O1 | inactive: 7.55%
COc1ccc([N+](=O)[O-])cc1NC(=O)c1cccnc1 | inactive: -5.07%
CCOc1ccc(/C=C2\SC(=S)N(NS(=O)(=O)c3ccc(C)cc3)C2=O)cc1OC | inactive: -0.0173%
Cc1cc(C)c(S(N)(=O)=O)c(C)c1N(C)S(=O)(=O)c1ccccc1 | inactive: 1.23%
CCc1ccc(-n2c(SCc3ccccc3C)nc3[nH]ncc3c2=O)cc1 | inactive: 27.3%
CCOC(=O)c1sc(N)c(C(N)=O)c1C | inactive: 11.5%
O=C(Nc1ccc([N+](=O)[O-])cc1Br)c1cccnc1 | inactive: 27%
Cc1ccc(S(=O)(=O)NN2C(=O)c3ccccc3NC2c2ccco2)cc1 (stereo not given) | inactive: -5.14%
Cc1ccc(CN2C(=O)CCC2C(=O)NC(C)C)cc1 (stereo not given) | inactive: 15.4%
